Assay results: PMC11799438
No constants are given. Whether binding was seen depends on the method and setting. For some of these results: Binding seen in cells or lysates may run through a third protein. Some results given as binding are weak or reduced against the parent protein; the word gives no strength. Where a sequence is shown, tags or fusion partners need not be part of it. Each block holds one substance with its values, some of them ahead of it.

Chains of the proteins cited; added tags and fusions are not shown. Lines headed by an entry give the natural chain unless they say otherwise; changes in a name come on top.
UniProt P09874: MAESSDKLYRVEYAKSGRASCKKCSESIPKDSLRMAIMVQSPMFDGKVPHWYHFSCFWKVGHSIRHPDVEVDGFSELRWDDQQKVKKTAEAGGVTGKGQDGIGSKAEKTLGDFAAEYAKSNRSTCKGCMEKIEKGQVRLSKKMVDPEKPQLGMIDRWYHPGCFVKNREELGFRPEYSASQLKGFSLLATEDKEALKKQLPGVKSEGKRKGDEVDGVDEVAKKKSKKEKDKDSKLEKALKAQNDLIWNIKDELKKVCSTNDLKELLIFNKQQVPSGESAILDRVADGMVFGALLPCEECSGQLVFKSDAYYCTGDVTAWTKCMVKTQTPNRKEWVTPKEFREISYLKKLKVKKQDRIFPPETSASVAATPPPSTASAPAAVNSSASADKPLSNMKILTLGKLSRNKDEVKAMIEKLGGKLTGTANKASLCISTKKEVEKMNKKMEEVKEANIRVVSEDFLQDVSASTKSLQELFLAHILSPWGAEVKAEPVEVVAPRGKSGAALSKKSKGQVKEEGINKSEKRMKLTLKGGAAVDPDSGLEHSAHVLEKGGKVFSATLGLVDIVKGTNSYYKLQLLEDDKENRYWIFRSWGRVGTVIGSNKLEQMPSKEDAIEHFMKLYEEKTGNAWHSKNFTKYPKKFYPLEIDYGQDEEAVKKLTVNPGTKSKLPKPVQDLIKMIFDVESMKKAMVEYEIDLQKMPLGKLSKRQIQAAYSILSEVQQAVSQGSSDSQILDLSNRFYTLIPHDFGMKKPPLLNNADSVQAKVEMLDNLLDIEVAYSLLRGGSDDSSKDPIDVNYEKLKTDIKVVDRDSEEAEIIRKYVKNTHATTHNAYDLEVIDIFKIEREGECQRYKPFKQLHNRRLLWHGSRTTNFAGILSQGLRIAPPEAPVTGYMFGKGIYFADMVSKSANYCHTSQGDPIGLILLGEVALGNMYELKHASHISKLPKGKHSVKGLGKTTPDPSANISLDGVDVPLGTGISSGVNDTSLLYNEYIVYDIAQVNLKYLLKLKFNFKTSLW

Experiments:
[1] = target: T1, Flag-tagged full-length RECQL4 (human) (UniProt O94761); experiment: co-IP; HEK293T cells co-transfected with V5-tagged PARP1 (full-length or fragments) with or without Flag-RECQL4; IP with anti-Flag beads, blot with anti-V5
T1 sequence: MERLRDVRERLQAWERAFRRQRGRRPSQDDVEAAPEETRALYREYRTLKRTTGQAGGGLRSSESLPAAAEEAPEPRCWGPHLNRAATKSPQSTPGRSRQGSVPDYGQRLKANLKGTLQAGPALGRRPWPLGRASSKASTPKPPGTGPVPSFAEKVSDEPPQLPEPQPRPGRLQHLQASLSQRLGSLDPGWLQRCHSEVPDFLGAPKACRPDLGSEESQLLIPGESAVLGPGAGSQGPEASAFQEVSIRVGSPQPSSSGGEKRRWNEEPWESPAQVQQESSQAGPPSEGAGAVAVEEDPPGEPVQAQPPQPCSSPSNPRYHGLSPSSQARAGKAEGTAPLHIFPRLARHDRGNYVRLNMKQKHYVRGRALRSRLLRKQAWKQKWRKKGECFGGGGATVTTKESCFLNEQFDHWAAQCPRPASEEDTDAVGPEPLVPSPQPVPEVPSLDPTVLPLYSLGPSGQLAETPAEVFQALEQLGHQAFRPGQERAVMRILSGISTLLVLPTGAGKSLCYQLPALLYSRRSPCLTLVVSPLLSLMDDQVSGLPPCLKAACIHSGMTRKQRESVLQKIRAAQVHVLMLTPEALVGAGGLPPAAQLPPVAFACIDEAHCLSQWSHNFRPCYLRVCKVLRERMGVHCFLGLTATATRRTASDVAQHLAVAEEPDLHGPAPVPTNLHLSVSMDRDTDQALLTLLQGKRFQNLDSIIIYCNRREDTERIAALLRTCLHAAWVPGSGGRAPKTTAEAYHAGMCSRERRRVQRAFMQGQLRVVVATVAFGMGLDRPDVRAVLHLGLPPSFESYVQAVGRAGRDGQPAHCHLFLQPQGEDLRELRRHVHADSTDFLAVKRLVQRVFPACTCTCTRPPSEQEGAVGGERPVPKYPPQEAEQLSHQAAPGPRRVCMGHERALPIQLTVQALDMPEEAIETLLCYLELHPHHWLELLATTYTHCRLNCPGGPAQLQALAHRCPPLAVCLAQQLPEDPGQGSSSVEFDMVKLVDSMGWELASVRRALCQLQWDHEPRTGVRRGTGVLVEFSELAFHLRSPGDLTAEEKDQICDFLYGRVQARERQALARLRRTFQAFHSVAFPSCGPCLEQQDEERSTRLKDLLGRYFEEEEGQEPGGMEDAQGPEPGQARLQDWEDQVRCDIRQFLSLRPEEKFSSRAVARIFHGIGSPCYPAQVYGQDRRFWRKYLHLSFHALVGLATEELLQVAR

[2] = target: T2, GFP–RECQL4 (human) (UniProt O94761); experiment: co-IP; GFP-RECQL4 IP from PARPi (olaparib)-treated cells before and after IR
T2 sequence: T1 sequence

[3] = target: T2, GFP–RECQL4 (human); experiment: co-IP; GFP-RECQL4 IP from WT cells before and after IR (also with Mirin); blots for XRCC1, PARP1 and LIG3
[4] = target: T1, Flag-tagged full-length RECQL4 (human); experiment: co-IP; U2OS cells with Flag-RECQL4, with or without 10 Gy IR and 5 µM olaparib (3 h); anti-Flag beads, blot for endogenous PARP1; benzonase-treated
[5] = target: T3, purified recombinant His–RECQL4 (human) (UniProt O94761); experiment: pull-down; purified recombinant His-RECQL4 bound to Ni-NTA beads, soluble PARP1; Ni-NTA alone as control; western blot with anti-His and anti-PARP1; both purified
T3 sequence: T1 sequence

Substance: V5-tagged PARP1 domain C (amino acids 1–461) (from UniProt P09874 1-461) (domain or fragment)
binding [1]: binds

Substance: V5-tagged full-length PARP1 (from UniProt P09874 1-1014)
binding [1]: binds

More lines, main results first:

binding [3]: binds | binding [4]: binds
Substance: endogenous PARP1 (from UniProt P09874 1-1014)
binding [2]: no binding (condition: PARPi-treated cells)

binding [5]: binds
Substance: active PARP1 enzyme (Active Motif 81737) (from UniProt P09874 1-1014)

binding [1]: binds
Substance: V5-tagged PARP1 domain G (aa 662–1,014) (from UniProt P09874 662-1014) (domain or fragment)
